Data taken from PubChem BioAssay AID1379 (National Center for Advancing Translational Sciences (NCATS), 2008).
The whole screen tested about 200,000 compounds, of which about 560 (0.28%) were called active. Inconclusive results, whose numbers are uncertain, are shown with a selection of clear calls. Calls come from the whole dose curve; as a rule, active = well fitted inhibition curve with a large enough effect; inconclusive = small, poorly fitted or top-dose-only effect; inactive = flat fitted curve, though single readings scatter. Potencies of inconclusive entries are left out as doubtful fits.

target: Luciferin 4-monooxygenase (Photuris pensylvanica) (UniProt Q27757); assay: Counterscreen for Luciferase (Kinase-Glo TM) Inhibition; conditions: ATP luminescence, 8 min; series mostly up to 38.3 µM; note: nearly all actives have a fitted effect of over 60% in size
Outline: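 Compound is pinned into ATP-containing buffer (10 uM ATP, imidazole pH 7.2, 7 mM MgCl2). Kinase-Glo luciferase reagent is then added. Light output is recorded following an 8-min room-temperature incubation.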
Potency is the fitted concentration of half-maximal effect; tags give direction and shape of the fitted curve.

Row | Structure (SMILES) | Potency
1 | Brc1ccc(-c2cn3cccnc3n2)cc1 | inactive
2 | Cc1ccc(-c2cn3cccc(C)c3n2)cc1 | inconclusive [inhibitor, partial curve]
3 | O=C(/C=C/c1cccc(F)c1)N1CCc2ccccc21 | inconclusive [inhibitor, single point]
4 | O=C(/C=C/c1ccc([N+](=O)[O-])cc1)N(c1ccccn1)C1CCCCC1 | inactive
5 | Cc1ccc(C(=O)N/N=C2\CCc3ccccc32)c(C)c1 | inactive
6 | O=C(c1ccccc1)c1cnc(-c2ccc(Cl)cc2)s1 | inconclusive [inhibitor, partial curve]
7 | O=C(/C=C/Nc1ccc(Br)cc1F)c1ccccc1 | active: 10 µM
8 | C=CCSc1nnc(-c2ccc(Cl)cc2Cl)o1 | inactive
9 | Cn1c(=O)c(C(=O)Nc2ncccn2)c(O)c2ccccc21 | inconclusive [inhibitor, partial curve]
10 | Cn1cccc1/C=N/NC(=O)c1ccco1 | inconclusive [inhibitor, single point]
11 | Cc1ccnc(NC(=O)c2ccoc2C)c1 | active: 6.31 µM
12 | Cc1ccccc1/C=N/NC(=O)c1sccc1C | active: 12.6 µM
13 | O=C1c2ccccc2C(=O)N1CCc1csc(NNc2nc(CCN3C(=O)c4ccccc4C3=O)cs2)n1 | inconclusive [inhibitor, single point]
14 | O=C1NC(c2ccccc2)=N/C1=C/c1ccco1 | inconclusive [inhibitor, partial curve]
15 | Cc1cc(=O)[nH]c(S/C=C/c2ccccc2)n1 | inconclusive [inhibitor, partial curve]
16 | Cc1ccsc1C(=O)Nc1ccc2c(c1)OCCO2 | active: 10 µM
17 | Cc1ccc(-c2cc(C(=O)NCc3ccccn3)no2)cc1 | inactive
18 | O=C(O/N=C/c1ccc2c(c1)OCO2)c1ccccc1Cl | active: 11.2 µM
19 | COc1ccc(C(=O)Nn2c(SCC(=O)NCC3CCCO3)nc3ccccc3c2=O)cc1 (configuration not stated) | inconclusive [inhibitor, partial curve]
20 | O=C(O)c1ccc2c3c(cccc13)C(=O)N(OS(=O)(=O)c1ccccc1)C2=O | inconclusive [inhibitor, partial curve]
21 | COc1ccc(-c2cc(=O)c3c(O)cc(O[C@H]4OC(COC5OC(C)C(O)C(O)[C@H]5O)C(O)C(O)C4O)cc3o2)cc1O (some centres not stated) | inactive
22 | Cc1ccc(-n2[nH]c(C)c(/C=N/n3c(C)nc4ccccc4c3=O)c2=O)cc1 | inconclusive [inhibitor, single point]
23 | Clc1nc2ccccc2cc1/C=N/Nc1nc2ccccc2[nH]1 | inconclusive [inhibitor, partial curve]
24 | CC(=O)O[C@H]1C(=O)[C@@]2(C)C([C@H](OC(=O)c3ccccc3)[C@]3(O)C[C@H](OC(=O)[C@H](O)[C@@H](NC(=O)c4ccccc4)c4ccccc4)C(C)=C1C3(C)C)[C@]1(OC(C)=O)CO[C@@H]1C[C@@H]2O (some centres not stated) | inactive

Row | Structure (SMILES) | Potency
25 | COc1ccc(/C=N/c2c(-c3ccco3)nc3ccccn23)cc1OC | inconclusive [inhibitor, single point]
26 | COc1cccc(/C=N/NC(=O)C(=O)N2CCCC2)c1O | inconclusive [inhibitor, single point]
27 | Cc1ccsc1/C=N/NC(=O)c1sccc1C | inconclusive [inhibitor, single point]
28 | CCC(Oc1ccccc1)C(=O)Nc1nc2ccccc2[nH]1 (configuration not stated) | inactive
29 | Cn1c(N/N=C/c2cc3ccccc3nc2Cl)nc2ccccc21 | active: 6.31 µM
30 | CCNc1c(C(=O)O)ccc2c1C(=O)c1ccccc1C2=O | inconclusive [inhibitor, single point]
31 | Cc1[nH]n(-c2ccc([N+](=O)[O-])cc2)c(=O)c1C=NCCN1CCN(C(=O)c2ccc(F)cc2)CC1 | inconclusive [inhibitor, single point]
32 | COc1ccccc1OCC(=O)NNC(=O)c1cnccn1 | inactive
33 | COc1ccc2c(c1)oc(=O)c1c3ccccc3[nH]c21 | inconclusive [inhibitor, single point]
34 | O=C1CCCC(O)=C1N=Nc1ccc2c(c1)OCO2 | inconclusive [inhibitor, partial curve]
35 | COc1cccc(C2CCCN2Cc2nc(-c3cnccn3)no2)c1 (configuration not stated) | inactive
36 | Cc1ccc(C(=O)Nc2ccc([N+](=O)[O-])cn2)o1 | inconclusive [inhibitor, single point]
37 | COc1ccccc1NC1=C(NC(C)=O)C(=O)c2ccccc2C1=O | inconclusive [inhibitor, partial curve]
38 | C/C(=N\Nc1ncc(Cl)cc1Cl)c1ccccn1 | inconclusive [inhibitor, partial curve]
39 | O=C(COC(=O)CNC(=O)c1sc2ccccc2c1Cl)Nc1c(Cl)cc(Cl)cc1Cl | inactive
40 | Cc1ccn2cc(-c3cccc([N+](=O)[O-])c3)nc2c1 | inconclusive [inhibitor, partial curve]
41 | CCOC(=O)CNC(=O)c1ccc(OCC(F)(F)F)cc1 | inconclusive [inhibitor, single point]
42 | Cc1ccc(C=C2C(=O)c3ccccc3C2=O)o1 | active: 11.2 µM
43 | Cc1csc(NC(=O)c2cccn2C)n1 | inconclusive [inhibitor, partial curve]
44 | Cc1nc(NC(=O)c2ccc(F)cc2)sc1C(=O)Nc1ccc2c(c1)CCC2 | inconclusive [inhibitor, single point]
45 | CCOc1ccc(S(=O)(=O)N(C)c2ccc(OCC(=O)N3CCOCC3)cc2)cc1 | inactive
46 | CCN(CC)c1ccc(/C=C2\CCC(/C=C(\C#N)C(=O)Nc3ccccc3F)=C2N2CCOCC2)cc1 | inconclusive [inhibitor, full curve]
47 | CCOC(=O)c1ccc(N/N=C/c2cc(Br)cc([N+](=O)[O-])c2O)cc1 | inconclusive [inhibitor, partial curve]
